Measurements published in patent US12215173B2, “Kappa opioid receptor peptide amide ligands” (priority 2019, dated 2025).
pEC50, pIC50: −log10 of the molar value. Like-named read-outs stand apart in the source and are kept apart here. For at least one compound, name, drawing or mass did not settle the structure. Square brackets hold non-standard residues; d marks the D form. Peptide text beside a SMILES is read from it. * marks the point of attachment. ξ: configuration not given here. Piperidin1yl(4-NH2,4-CO2Me) = COC(=O)C1(N)CCN(*)CC1; Pyrrolidinyl(3-NH2,3-CO2Me) = COC(=O)C1(N)CCN(*)C1; Piperidin1yl(4-NH2,4-COOH) = NC1(C(=O)O)CCN(*)CC1; dAla(cPr) = N[C@H](CC1CC1)C(=O)O; Aic = NC1(C(=O)O)Cc2ccccc2C1; ξL = CC(C)CC(N)C(=O)O

Columns and labels:
[1] = target: recombinant human kappa (KOR) opioid receptor (Homo sapiens (Human), UniProt P41145); type: binding; settings: read-out: KOR, IC50
[2] = target: Opioid Kappa Receptor (recombinant human, HEK293 cells) (Homo sapiens (Human), UniProt P41145); type: cell-based
[3] = target: recombinant human mu (MOR) opioid receptor (Homo sapiens (Human), UniProt P35372); assay: Opioid receptor radioligand binding assay, MOR
[4] = target: recombinant human delta (DOR) opioid receptor (Homo sapiens (Human), UniProt P41143); assay: Opioid receptor radioligand binding assay, DOR
Chain of recombinant human delta (DOR) opioid receptor (P41143 whole entry, looked up): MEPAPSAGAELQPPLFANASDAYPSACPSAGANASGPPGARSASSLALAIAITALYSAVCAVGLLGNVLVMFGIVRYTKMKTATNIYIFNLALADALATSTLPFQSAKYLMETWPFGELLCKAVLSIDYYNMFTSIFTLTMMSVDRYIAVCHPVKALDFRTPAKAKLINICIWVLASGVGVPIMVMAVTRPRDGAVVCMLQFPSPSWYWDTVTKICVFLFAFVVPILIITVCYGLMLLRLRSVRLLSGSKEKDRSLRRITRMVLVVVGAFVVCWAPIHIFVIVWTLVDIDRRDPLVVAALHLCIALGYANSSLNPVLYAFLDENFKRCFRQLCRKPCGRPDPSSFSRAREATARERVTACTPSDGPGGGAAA

[5] = HEK293 cell membranes, 0.5 nM [3H]diprenorphine
[6] = read-out: MOR, IC50; HEK293 cell membranes, 0.5 nM [3H]DAMGO
[7] = HEK293 cell membranes, 0.5 nM [3H]DAMGO; read-out: MOR, IC50
[8] = HEK293 cell membranes, 0.5 nM [3H]DADLE; read-out: DOR, IC50

Row | SMILES | pIC50 [1, 5] | pEC50 ([2]; read-out: EC50) | also measured
1 | COC(=O)C1(N)CCN(C(=O)[C@@H](CCCCN)NC(=O)[C@@H](CC(C)C)NC(=O)[C@@H](Cc2ccccc2)NC(=O)[C@H](N)Cc2ccc(F)cc2)C1 (single isomer, unassigned) [Compound 185] | 9.07 | 7.89 | –
2 | CC(C)C[C@@H](NC(=O)[C@@H](Cc1ccccc1)NC(=O)[C@H](N)Cc1ccccc1)C(=O)N[C@H](CCCCN)C(=O)N1CCC(NC(=O)C(N)=O)CC1 [Compound 13-33] | – | 7.40 | –
3 | CC(C)C[C@@H](NC(=O)[C@@H](Cc1ccccc1)NC(=O)[C@H](N)Cc1ccccc1)C(=O)N[C@H](CCCCN)C(=O)N1CCC2(CC1)CNC(=O)N2 [Compound 13-46] | – | 8.80 | –
4 | CCCN(C(=O)OC)C1CCN(C(=O)[C@@H](CCCCN)NC(=O)[C@@H](CC(C)C)NC(=O)[C@@H](Cc2ccccc2)NC(=O)[C@H](N)Cc2ccccc2)CC1 [Compound 13-49] | – | 7.59 | –
5 | CC(C)C[C@@H](NC(=O)[C@@H](Cc1ccccc1)NC(=O)[C@H](N)Cc1ccccc1)C(=O)N[C@H](CCCCN)C(=O)N1CCC(NC(=O)C(N)=O)CC1 [Compound 13-57] | 9.15 | 7.53 | pIC50 [3, 6]: 5.30
6 | COC(=O)C1(N)CCN(C(=O)CNC(=O)[C@@H](CCCCN)NC(=O)[C@@H](CC(C)C)NC(=O)[C@@H](Cc2ccccc2)NC(=O)[C@H](N)Cc2ccccc2)C1 (stereo partly drawn) [Compound 70] (H-[dF][dF][dL][dK]G-{Pyrrolidinyl(3-NH2,3-CO2Me)}; C-terminus assumed) | 9.77 | 8.45 | pIC50 [3, 7]: < 5.00; pIC50 [4, 8]: < 5.00
7 | CCCC[C@@H](NC(=O)[C@@H](Cc1ccccc1)NC(=O)[C@H](N)Cc1ccccc1)C(=O)N[C@H](Cc1cnc(N)nc1)C(=O)N1CCC(N)(C(=O)OC)CC1 [Compound 79] | 8.24 | – | pIC50 [3, 6]: 5.01; pIC50 ([4]; read-out: DOR, IC50; HEK293 cell membranes, 0.5 nM [3H]DADLE): < 5.00
8 | N=C(N)NCCC[C@@H](NC(=O)[C@@H](CC1CC1)NC(=O)[C@@H](Cc1ccccc1)NC(=O)[C@H](N)Cc1ccccc1)C(=O)N1CCC(N)(C(=O)O)CC1 [Compound 127] (H-[dF][dF][dAla(cPr)][dR]-{Piperidin1yl(4-NH2,4-COOH)}) | – | – | pIC50 [1]: 10.00; pIC50 [3, 7]: 5.99; pEC50 [2]: 7.83; pIC50 [4, 8]: < 5.00
9 | COC(=O)C1(N)CCN(C(=O)[C@@H](CCCCN)NC(=O)C(CC(C)C)NC(=O)[C@@H](Cc2ccccc2)NC(=O)C2(N)Cc3ccccc3C2)C1 (stereo partly drawn) [Compound 156] (H-[Aic][dF][ξL][dK]-{Pyrrolidinyl(3-NH2,3-CO2Me)}) | – | 7.55 | –
10 | COC(=O)C1(N)CCN(C(=O)[C@@H](CCCCN)NC(=O)C(CC(C)C)NC(=O)[C@@H](Cc2ccccc2)NC(=O)C2(N)Cc3ccccc3C2)CC1 (stereo partly drawn) [Compound 158] (H-[Aic][dF][ξL][dK]-{Piperidin1yl(4-NH2,4-CO2Me)}) | – | 7.55 | –
